{
  "source": "paper PMC8555654",
  "about": "(Molecular neurobiology, 2021)",
  "binders": {"B1": {"name": "Neuropilin-2, wild type, with an N-terminal FLAG tag (mouse Npn2 in pcDNA3.1) (receptor)", "chain": "not shown"}, "B2": {"name": "Neuropilin-2 mutant Arg31Glu, with an N-terminal FLAG tag (receptor)", "chain": "not shown"}},
  "experiment_in_all_cases": "co-IP",
  "key": {"[1]": {"target": "T1, NrCAM mutant Asp84Ala (mouse, UniProt Q810U4 30-1256, Asp^84Ala)", "T1 sequence (looked up)": "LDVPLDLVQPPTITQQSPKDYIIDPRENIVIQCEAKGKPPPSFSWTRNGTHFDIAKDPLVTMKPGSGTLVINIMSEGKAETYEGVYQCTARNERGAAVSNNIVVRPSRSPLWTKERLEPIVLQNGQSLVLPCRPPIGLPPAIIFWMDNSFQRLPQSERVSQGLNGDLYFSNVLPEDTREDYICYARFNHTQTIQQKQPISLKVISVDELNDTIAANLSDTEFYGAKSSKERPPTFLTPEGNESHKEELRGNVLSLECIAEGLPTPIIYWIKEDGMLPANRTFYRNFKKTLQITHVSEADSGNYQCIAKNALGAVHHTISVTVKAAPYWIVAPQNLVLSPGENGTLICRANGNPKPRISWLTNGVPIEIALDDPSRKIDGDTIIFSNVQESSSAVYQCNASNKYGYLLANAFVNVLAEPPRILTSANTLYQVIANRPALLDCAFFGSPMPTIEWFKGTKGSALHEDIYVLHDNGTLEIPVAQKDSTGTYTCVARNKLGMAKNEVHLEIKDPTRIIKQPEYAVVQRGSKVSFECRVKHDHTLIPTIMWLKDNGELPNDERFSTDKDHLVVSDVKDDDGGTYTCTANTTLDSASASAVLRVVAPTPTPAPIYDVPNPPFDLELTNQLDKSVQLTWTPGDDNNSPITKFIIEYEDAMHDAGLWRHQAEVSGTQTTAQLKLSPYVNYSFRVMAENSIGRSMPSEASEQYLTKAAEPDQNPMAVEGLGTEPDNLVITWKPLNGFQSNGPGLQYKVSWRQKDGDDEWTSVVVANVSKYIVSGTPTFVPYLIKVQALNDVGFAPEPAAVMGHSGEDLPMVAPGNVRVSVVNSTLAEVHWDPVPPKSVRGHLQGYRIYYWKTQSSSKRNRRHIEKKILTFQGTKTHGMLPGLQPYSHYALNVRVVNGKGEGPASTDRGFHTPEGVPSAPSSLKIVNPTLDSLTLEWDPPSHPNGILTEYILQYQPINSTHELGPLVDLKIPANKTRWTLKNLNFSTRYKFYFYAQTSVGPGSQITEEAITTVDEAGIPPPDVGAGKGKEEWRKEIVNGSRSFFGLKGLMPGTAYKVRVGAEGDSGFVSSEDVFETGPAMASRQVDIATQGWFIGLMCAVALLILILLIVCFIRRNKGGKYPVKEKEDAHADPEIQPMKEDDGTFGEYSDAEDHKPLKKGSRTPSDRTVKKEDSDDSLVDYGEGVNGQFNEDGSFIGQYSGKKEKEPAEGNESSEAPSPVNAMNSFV"}, "[2]": {"target": "T2, NrCAM mutant Lys85Glu (mouse, UniProt Q810U4 30-1256, Lys^85Glu)", "T2 sequence (looked up)": "T1 sequence (looked up) with A55D, K56E"}, "[3]": {"target": "T3, NrCAM mutant Asp82Arg (mouse, UniProt Q810U4 30-1256, Asp^82Arg)", "T3 sequence (looked up)": "T1 sequence (looked up) with D53R, A55D"}, "[4]": {"target": "T4, NrCAM, wild type (mouse NrCAM splice variant 1 in pCMV6) (mouse, UniProt Q810U4 30-1256)", "T4 sequence (looked up)": "T1 sequence (looked up) with A55D"}},
  "note": "Numbering of substitutions follows the chain as printed.",
  "data": [
    {"binder": "B1", "values": [
      {"measurement": "ratio of Npn2/NrCAM in the immunoprecipitate, normalized to WT Npn2/NrCAM", "setting": "[1]", "value": "0.607 relative to WT"},
      {"measurement": "ratio of Npn2/NrCAM in the immunoprecipitate, normalized to WT Npn2/NrCAM", "setting": "[2]", "value": "0.181 relative to WT"},
      {"measurement": "ratio of Npn2/NrCAM in the immunoprecipitate, normalized to WT Npn2/NrCAM", "setting": "[3]", "value": "0.17 relative to WT"}
    ]},
    {"binder": "B2", "values": [
      {"measurement": "ratio of Npn2/NrCAM in the immunoprecipitate, normalized to WT Npn2/NrCAM", "setting": "[4]", "value": "0.496 relative to WT"}
    ]}
  ]
}
